Experimental data reported in PubChem BioAssay (Tox21).
Inconclusive results, whose numbers are uncertain, are shown with a selection of clear calls. For some assays here: Where the call is inconclusive, the potency comes from a doubtful curve fit. Calls of active or inactive are those of the source. Unless noted, the call rests on the fitted dose curve; in most records, active means well fitted curve in the direction sought with a large enough effect in the repeat runs; inconclusive means weak or mixed curves; inactive means no such curve, though single readings can be large; an effect the other way counts as inactive or inconclusive.

How the values were obtained:
[1] = qHTS assay for small molecule agonists of the p53 signaling pathway (AID 651631; calls by dose curve; further: nearly all actives have a fitted effect of over 15% in size; further: potency means the concentration at half of the fitted maximal effect; on activation: on the % scale 0 is the no-effect control and ±100 the full control effect); conditions: HCT-116 p53RE-bla reporter, beta-lactamase FRET ratio, 16 h; activation: at 73.3 µM (top of the series) unless noted
How it was run: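 Fluorescence intensity from cleaved LiveBLAzer B/G substrate (2 h, room temperature) served as the signal. Beforehand, HCT-116 reporter cells bearing p53 response elements were treated 16 h at 37 °C with DMSO-dissolved compounds.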

[2] = molecular target: Glucocorticoid receptor (Homo sapiens) (UniProt P04150); assay: qHTS assay to identify small molecule antagonists of the glucocorticoid receptor (GR) signaling pathway (AID 720692; active means well fitted inhibition curve with a large enough effect in the signal ratio in the repeat runs, not every such curve was filed as active; inconclusive means weak or mixed curves, or effect the other way; inactive means no such curve, though single readings can be large or run the other way; the % refers to the signal ratio; further: potency means the concentration at half of the fitted maximal effect; on activity change, negative = inhibition: on the % scale 0 is the no-effect control and ±100 the full control effect); conditions: GR-bla HeLa, beta-lactamase FRET ratio, dexamethasone-stimulated, 18 h; activity change, negative = inhibition: at 58.5 µM (top of the series) unless noted
How it was run: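 Cells plated, rested 4 h at 37 C/5% CO2; compounds in DMSO pin-transferred; dexamethasone added to 5 nM final; 18 h at 37 C; B/G FRET substrate added, 2 h room temperature; fluorescence measured.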

[3] = molecular target: Androgen receptor (Homo sapiens) (UniProt P10275); assay: qHTS assay to identify small molecule agonists of the androgen receptor (AR) signaling pathway (AID 743036; active means well fitted activation curve with a large enough effect in the signal ratio in the repeat runs, with a control signal flat, not every such curve was filed as active; inconclusive means weak or mixed curves, or effect the other way; inactive means no such curve, though single readings can be large or run the other way; the % refers to the signal ratio; further: on the % scale 0 is the no-effect control and ±100 the full control effect); conditions: HEK293 AR-UAS-bla GripTite, beta-lactamase FRET ratio, 16 h; activation: at 62.4 µM (top of the series) unless noted
How it was run: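 Agonist activity was scored by beta-lactamase reporter fluorescence in stably transfected HEK293 cells exposed to compounds for 16 h at 37C and 5% CO2. Substrate loading took 2 h at room temperature.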

[4] = qHTS assay to identify small molecule antagonists of the thyroid receptor (TR) signaling pathway - cell viability counter screen (AID 743064); conditions: GH3.TRE-Luc viability, CellTiter-Fluor, 24 h; activity change, negative = cytotoxic: at 70.3 µM (top of the series) unless noted; further: potency means the concentration at half of the fitted maximal effect; nearly all actives have a fitted effect of over 50% in size
How it was run: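 Same-well viability check: GH3.TRE-Luc cells stimulated with 1 nM T3 alongside test compound for 23.5 h, followed by CellTiter-Fluor fluorescence.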

[5] = molecular target: Estrogen receptor (Homo sapiens) (UniProt P03372); assay: qHTS assay to identify small molecule agonists of the estrogen receptor alpha (ER-alpha) signaling pathway using the BG1 cell line (AID 743079); conditions: BG1Luc4E2 cells, ERE-luciferase agonist, 22 h; activation: at 70.3 µM (top of the series) unless noted; further: nearly all actives have a fitted effect of over 20% in size; further: potency means the concentration at half of the fitted maximal effect; on activation: on the % scale 0 is the no-effect control and ±100 the full control effect
[6] = qHTS assay for identifying genotoxic compounds that show differential cytotoxicity against isogenic chicken DT40 cell lines with known DNA damage response pathways - Rev3 mutant cell line (AID 743014); conditions: chicken DT40 Rev3-/- viability, CellTiter-Glo, 40 h; activity, negative = cytotoxicity: at 68.4 µM (top of the series) unless noted; further: potency means the concentration at half of the fitted maximal effect; nearly all actives have a fitted effect of over 55% in size
[7] = molecular target: Androgen receptor (Homo sapiens) (UniProt P10275); assay: qHTS assay to identify small molecule antagonists of the androgen receptor (AR) signaling pathway (AID 743035; active means well fitted inhibition curve with a large enough effect in the signal ratio in the repeat runs, not every such curve was filed as active; inconclusive means weak or mixed curves, or effect the other way; inactive means no such curve, though single readings can be large or run the other way; the % refers to the signal ratio; further: potency means the concentration at half of the fitted maximal effect); conditions: HEK293 AR-UAS-bla, R1881-stimulated, beta-lactamase FRET, 16 h; activity change, negative = inhibition: at 58.5 µM (top of the series) unless noted
How it was run: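 Antagonism is scored as loss of R1881-driven beta-lactamase reporter expression in HEK293 cells carrying the reporter under a UAS element, after 16 h co-treatment at 37C and a 2 h room-temperature FRET substrate read.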

[8] = molecular target: Estrogen receptor (Homo sapiens) (UniProt P03372); assay: qHTS assay to identify small molecule antagonists of the estrogen receptor alpha (ER-alpha) signaling pathway (AID 743069; active means well fitted curve in the direction sought with a large enough effect in the signal ratio in the repeat runs, not every such curve was filed as active; inconclusive means weak or mixed curves, or effect the other way; inactive means no such curve, though single readings can be large or run the other way; the % refers to the signal ratio; further: potency means the concentration at half of the fitted maximal effect); conditions: HEK293 ER-alpha-UAS-bla, beta-lactamase ratio, antagonist mode; activity, negative = inhibition: at 69.4 µM (top of the series) unless noted
How it was run: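 Reporter cells (ER-alpha-bla, HEK293 background) are conditioned overnight in stripped-serum medium (2% charcoal-stripped FBS). Compound and 17beta-estradiol exposure runs 18 hr at 37C, 5% CO2.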

[9] = qHTS assay to identify small molecule antagonists of the estrogen receptor alpha (ER-alpha) signaling pathway - cell viability counter screen (AID 743074; calls by dose curve;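 further: HEK293 cells carrying ER-alpha-UAS-bla reporter stimulated with 17beta-estradiol; potency means the concentration at half of the fitted maximal effect; nearly all actives have a fitted effect of over 45% in size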)
[10] = qHTS assay for small molecule disruptors of the mitochondrial membrane potential (AID 720635); conditions: HepG2 mitochondrial membrane potential, Mito-MPS dye ratio; ratio activity, negative = MMP loss: at 83.2 µM (top of the series) unless noted; further: potency means the concentration at half of the fitted maximal effect
How it was run: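 HepG2 cells exposed to compound 1 hr at 37C, then Mito-MPS dye 30 min. Ratio read of aggregate (540/590 nm) versus monomer (490/535 nm) fluorescence.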

[11] = molecular target: Aryl hydrocarbon receptor (Homo sapiens) (UniProt P35869); assay: qHTS assay to identify small molecule that activate the aryl hydrocarbon receptor (AhR) signaling pathway (AID 743085);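 further: HG2L7.5c1 human HepG2 liver cells with stably integrated DRE-driven firefly reporter; on the % scale 0 is the no-effect control and ±100 the full control effect; nearly all actives have a fitted effect of over 15% in size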
How it was run: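 Reporter assay in engineered HepG2 line HG2L7.5c1, whose plasmid carries twenty dioxin responsive elements upstream of firefly luciferase. Treatment lasted 24 h at 37C; ONE-Glo luminescence gauged induction.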

[12] = molecular target: Estrogen receptor (Homo sapiens) (UniProt P03372); assay: qHTS assay to identify small molecule agonists of the estrogen receptor alpha (ER-alpha) signaling pathway (AID 743075; calls by dose curve;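 further: HEK293 GripTite cells with ER-alpha and UAS-driven beta-lactamase reporter; potency means the concentration at half of the fitted maximal effect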); conditions: HEK293 ER-alpha-UAS-bla, beta-lactamase FRET ratio, 18 h; activation: at 70.1 µM (top of the series)
[13] = qHTS assay to identify small molecule antagonists of the estrogen receptor alpha (ER-alpha) signaling pathway using the BG1 cell line (AID 743080; calls by dose curve;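 further: BG1 cells stimulated with 17beta-estradiol alongside compound; nearly all actives have a fitted effect of over 25% in size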; further: potency means the concentration at half of the fitted maximal effect); conditions: BG1Luc4E2 ERE-luciferase antagonist mode, luminescence; activity change, negative = inhibition: at 70.3 µM (top of the series) unless noted
How it was run: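 BG1-Luc-4E2 cells (endogenous full-length ER-alpha, 4xERE luciferase) hormone-starved 5 days in charcoal-stripped FBS, plated 4,000/well for 24 h, then compound plus 17beta-estradiol for 21.5 h at 37 C; ONE-Glo luminescence read.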

[14] = qHTS assay for identifying genotoxic compounds that show differential cytotoxicity against isogenic chicken DT40 cell lines with known DNA damage response pathways - wild type cell line (AID 743012); conditions: DT40 wild type chicken cells viability, CellTiter-Glo, 40 h; activity change, negative = cytotoxicity: at 68.4 µM (top of the series) unless noted; further: potency means the concentration at half of the fitted maximal effect; nearly all actives have a fitted effect of over 60% in size
How it was run: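 Cells (DT40 wild type, 300/well) are treated with DMSO-dissolved compounds after a ~0.5 h pre-incubation and kept 40 h at 37 C/5% CO2. Viability is then measured by CellTiter-Glo luminescence following 30 min at room temperature.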

[15] = qHTS assay for identifying genotoxic compounds that show differential cytotoxicity against isogenic chicken DT40 cell lines with known DNA damage response pathways - Rad54/Ku70 mutant cell line (AID 743015); conditions: DT40 Rad54/Ku70 mutant viability, CellTiter-Glo, 40 h; activity change, negative = cytotoxicity: at 66.8 µM (top of the series) unless noted; further: potency means the concentration at half of the fitted maximal effect; nearly all actives have a fitted effect of over 60% in size
[16] = qHTS assay to identify small molecule antagonists of the thyroid receptor (TR) signaling pathway (AID 743065); further: potency means the concentration at half of the fitted maximal effect; nearly all actives have a fitted effect of over 55% in size
How it was run: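 GH3.TRE-Luc rat pituitary cells (two TREs driving luciferase) were dosed with compound, then stimulated with 1 nM T3 (final) for 23.5 h at 37 C. ONE-Glo luminescence was the read-out, with CellTiter-Fluor fluorescence as the cytotoxicity counter-screen.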

[17] = tested on: thyroid hormone receptor (rat, GH3 cells); assay: qHTS assay to identify small molecule agonists of the thyroid receptor (TR) signaling pathway (AID 743066; calls by dose curve; further: potency means the concentration at half of the fitted maximal effect); conditions: GH3.TRE-Luc cells, TR agonist luciferase, 24 h; activation: at 83.9 µM (top of the series) unless noted
Aromatase (Homo sapiens) = Aromatase (Homo sapiens) (UniProt P11511); assay: qHTS assay to identify aromatase inhibitors (AID 743083); further: potency means the concentration at half of the fitted maximal effect; nearly all actives have a fitted effect of over 55% in size
[18] = molecular target: Peroxisome proliferator-activated receptor gamma (Homo sapiens) (UniProt P37231); assay: qHTS assay to identify small molecule agonists of the peroxisome proliferator-activated receptor gamma (PPARg) signaling pathway (AID 743094; active means well fitted activation curve with a large enough effect in the signal ratio in the repeat runs, not every such curve was filed as active; inconclusive means weak or mixed curves, or effect the other way; inactive means no such curve, though single readings can be large or run the other way; the % refers to the signal ratio; further: potency means the concentration at half of the fitted maximal effect); conditions: HEK293H PPARg-UAS-bla, beta-lactamase FRET ratio, 17 h; activation: at 57 µM (top of the series) unless noted
How it was run: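 Quantitative HTS agonist mode: stable HEK293H line with UAS-beta-lactamase reporter under PPARg control, 17 h compound exposure at 37C, fluorescence after 1 h FRET substrate loading at room temperature.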
Tags describe the fitted curve by direction and shape or compound fluorescence and quenching.

Sequence of UniProt P04150 (P04150 whole entry, looked up): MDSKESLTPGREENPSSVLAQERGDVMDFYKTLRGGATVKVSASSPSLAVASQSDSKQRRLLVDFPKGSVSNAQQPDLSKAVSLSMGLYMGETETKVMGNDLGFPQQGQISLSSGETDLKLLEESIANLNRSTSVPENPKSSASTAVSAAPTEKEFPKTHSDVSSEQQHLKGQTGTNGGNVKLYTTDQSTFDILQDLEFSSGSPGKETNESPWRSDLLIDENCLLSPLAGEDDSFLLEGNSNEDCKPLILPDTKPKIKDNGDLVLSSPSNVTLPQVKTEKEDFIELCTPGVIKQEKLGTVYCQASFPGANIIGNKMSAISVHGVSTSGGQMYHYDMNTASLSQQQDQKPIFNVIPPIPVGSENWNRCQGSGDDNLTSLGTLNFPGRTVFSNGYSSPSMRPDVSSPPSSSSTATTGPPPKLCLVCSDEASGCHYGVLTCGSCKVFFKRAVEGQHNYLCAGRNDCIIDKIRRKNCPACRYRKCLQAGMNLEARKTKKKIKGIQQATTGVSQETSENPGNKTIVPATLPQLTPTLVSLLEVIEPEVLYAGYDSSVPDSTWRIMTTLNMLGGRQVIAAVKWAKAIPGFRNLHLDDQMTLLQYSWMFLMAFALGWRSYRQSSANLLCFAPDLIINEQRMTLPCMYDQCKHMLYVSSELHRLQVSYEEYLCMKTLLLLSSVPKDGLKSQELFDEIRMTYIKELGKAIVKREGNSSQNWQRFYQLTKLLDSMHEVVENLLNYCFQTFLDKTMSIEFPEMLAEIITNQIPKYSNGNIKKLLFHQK
Sequence of UniProt P10275 (P10275 whole entry, looked up): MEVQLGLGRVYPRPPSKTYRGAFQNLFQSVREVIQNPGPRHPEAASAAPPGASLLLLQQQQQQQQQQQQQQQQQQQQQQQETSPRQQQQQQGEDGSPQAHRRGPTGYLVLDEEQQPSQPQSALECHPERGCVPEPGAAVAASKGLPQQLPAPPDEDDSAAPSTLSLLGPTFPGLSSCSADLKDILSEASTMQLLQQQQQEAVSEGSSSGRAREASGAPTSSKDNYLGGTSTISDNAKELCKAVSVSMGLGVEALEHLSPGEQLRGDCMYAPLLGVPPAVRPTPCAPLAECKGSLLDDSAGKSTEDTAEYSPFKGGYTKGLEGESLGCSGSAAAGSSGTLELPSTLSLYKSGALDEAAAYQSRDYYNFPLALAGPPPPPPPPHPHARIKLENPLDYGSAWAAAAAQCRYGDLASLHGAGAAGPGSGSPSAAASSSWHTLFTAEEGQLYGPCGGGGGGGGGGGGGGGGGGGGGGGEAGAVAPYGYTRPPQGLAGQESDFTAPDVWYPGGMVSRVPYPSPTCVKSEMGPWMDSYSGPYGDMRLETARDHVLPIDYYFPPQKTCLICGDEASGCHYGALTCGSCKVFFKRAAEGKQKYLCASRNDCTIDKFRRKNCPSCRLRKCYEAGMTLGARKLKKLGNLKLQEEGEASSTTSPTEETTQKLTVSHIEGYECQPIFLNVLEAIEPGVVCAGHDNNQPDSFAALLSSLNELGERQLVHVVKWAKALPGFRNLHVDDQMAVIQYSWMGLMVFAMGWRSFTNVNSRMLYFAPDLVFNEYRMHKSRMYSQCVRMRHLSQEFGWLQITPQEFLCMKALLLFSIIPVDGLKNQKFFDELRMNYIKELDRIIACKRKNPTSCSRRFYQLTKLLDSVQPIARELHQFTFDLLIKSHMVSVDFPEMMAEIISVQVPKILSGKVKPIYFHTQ
Sequence of UniProt P03372 (P03372 whole entry, looked up): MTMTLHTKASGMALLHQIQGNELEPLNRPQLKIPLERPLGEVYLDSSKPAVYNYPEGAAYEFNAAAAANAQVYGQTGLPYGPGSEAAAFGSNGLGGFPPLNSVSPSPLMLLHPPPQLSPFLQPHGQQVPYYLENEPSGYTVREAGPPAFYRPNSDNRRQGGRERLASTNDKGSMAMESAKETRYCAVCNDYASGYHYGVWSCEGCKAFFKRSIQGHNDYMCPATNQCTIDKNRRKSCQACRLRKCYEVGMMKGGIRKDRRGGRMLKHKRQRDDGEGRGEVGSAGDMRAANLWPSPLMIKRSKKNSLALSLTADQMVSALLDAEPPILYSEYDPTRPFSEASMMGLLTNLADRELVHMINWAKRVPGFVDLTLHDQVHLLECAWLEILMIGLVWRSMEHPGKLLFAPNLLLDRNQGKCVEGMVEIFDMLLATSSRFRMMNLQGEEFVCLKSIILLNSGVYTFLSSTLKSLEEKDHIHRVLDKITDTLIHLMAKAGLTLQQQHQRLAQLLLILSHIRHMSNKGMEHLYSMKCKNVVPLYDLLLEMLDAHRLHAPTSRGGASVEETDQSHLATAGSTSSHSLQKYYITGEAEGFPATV
Sequence of UniProt P37231 (P37231 whole entry, looked up): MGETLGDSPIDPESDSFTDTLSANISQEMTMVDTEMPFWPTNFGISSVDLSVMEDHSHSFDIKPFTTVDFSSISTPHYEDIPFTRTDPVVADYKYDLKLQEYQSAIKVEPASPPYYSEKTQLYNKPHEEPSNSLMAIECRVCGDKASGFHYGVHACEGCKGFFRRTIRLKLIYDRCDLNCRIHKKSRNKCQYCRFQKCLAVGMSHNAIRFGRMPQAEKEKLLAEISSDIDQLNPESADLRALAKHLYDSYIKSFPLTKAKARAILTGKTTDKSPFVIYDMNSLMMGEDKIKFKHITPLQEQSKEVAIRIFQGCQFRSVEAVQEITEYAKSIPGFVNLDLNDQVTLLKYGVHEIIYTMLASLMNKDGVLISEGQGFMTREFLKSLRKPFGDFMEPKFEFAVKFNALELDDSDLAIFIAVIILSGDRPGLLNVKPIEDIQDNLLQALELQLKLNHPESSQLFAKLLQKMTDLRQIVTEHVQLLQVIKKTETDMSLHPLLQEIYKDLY
Sequence of UniProt P11511 (P11511 whole entry, looked up): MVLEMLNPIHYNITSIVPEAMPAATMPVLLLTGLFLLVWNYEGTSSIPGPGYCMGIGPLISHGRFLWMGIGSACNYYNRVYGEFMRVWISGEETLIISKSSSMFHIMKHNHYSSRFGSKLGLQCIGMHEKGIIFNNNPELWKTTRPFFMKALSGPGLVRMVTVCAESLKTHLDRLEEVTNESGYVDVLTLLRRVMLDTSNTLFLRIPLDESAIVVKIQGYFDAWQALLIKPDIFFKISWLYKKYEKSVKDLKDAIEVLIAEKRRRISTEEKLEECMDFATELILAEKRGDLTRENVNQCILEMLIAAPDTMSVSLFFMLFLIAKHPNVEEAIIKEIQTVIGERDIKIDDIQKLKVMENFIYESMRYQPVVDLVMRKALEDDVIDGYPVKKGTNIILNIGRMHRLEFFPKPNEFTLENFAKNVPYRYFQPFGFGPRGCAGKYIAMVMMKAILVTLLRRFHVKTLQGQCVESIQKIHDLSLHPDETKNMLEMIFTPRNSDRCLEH
Sequence of UniProt P35869 (P35869 whole entry, looked up): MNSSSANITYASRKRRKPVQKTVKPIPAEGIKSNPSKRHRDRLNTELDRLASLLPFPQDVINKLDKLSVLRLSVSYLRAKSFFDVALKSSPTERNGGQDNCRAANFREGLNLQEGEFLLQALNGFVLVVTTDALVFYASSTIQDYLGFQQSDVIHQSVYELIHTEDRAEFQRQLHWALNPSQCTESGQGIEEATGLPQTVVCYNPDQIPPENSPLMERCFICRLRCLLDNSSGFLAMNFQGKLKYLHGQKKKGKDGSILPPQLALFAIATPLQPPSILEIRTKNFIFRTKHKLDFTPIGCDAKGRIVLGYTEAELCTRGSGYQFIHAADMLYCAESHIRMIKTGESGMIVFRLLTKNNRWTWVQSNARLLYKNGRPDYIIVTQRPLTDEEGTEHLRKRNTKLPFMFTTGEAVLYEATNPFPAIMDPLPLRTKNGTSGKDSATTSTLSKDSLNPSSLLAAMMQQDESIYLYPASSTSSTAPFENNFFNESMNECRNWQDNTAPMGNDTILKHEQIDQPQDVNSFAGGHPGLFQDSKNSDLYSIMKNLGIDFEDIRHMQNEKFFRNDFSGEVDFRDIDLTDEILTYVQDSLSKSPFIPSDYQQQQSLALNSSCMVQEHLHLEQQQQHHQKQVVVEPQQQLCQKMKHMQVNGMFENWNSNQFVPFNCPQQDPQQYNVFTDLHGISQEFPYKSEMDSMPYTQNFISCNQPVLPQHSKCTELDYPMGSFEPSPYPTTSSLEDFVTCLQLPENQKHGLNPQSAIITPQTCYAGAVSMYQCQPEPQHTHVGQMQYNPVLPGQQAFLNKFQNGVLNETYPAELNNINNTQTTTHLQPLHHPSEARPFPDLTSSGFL

CCC[C@@H]1C[C@@H](C(=O)N[C@@H]([C@H]2O[C@H](SC)[C@H](OP(=O)(O)O)[C@@H](O)[C@H]2O)[C@H](C)Cl)N(C)C1
inconclusive: Potency [4] 0.335 µM [rising, full curve, poor fit]
inactive: Potency [1] | Potency [2] | Potency [3] | Potency [5]

C[C@@H]1O[C@@H]1P(=O)(O)O
inactive: Potency [1] | Potency [2] | Potency [7]
inconclusive: Potency [6] 23.7 µM [rising, partial curve, poor fit] | Potency [4] 11.9 µM [rising, partial curve, poor fit]

CC(=O)O[C@H]1CC[C@@]2(C)C(=CC[C@H]3[C@@H]4CC[C@H](C(C)=O)[C@@]4(C)CC[C@@H]32)C1
inconclusive: Potency [1] 29.8 µM [rising, partial curve, poor fit] | activity change, negative = inhibition [2] -20.6% | Potency [6] 0.596 µM [cytotoxic, partial curve, poor fit] | activity, negative = inhibition [8] 37.5% | Potency [9] 26.8 µM [rising, single point] | Potency [5] 4.22 µM [activator, full curve]

CC[C@H](CC[C@@H](C)[C@H]1CC[C@H]2[C@@H]3CC=C4C[C@@H](O)CC[C@]4(C)[C@H]3CC[C@]12C)C(C)C
inconclusive: Potency [10] 11.9 µM [activator, single point]
inactive: Potency [1] | Potency [11]

CC(O)CN(C)C (stereo not drawn)
inactive: Potency [1] | Potency [13]
inconclusive: ratio activity, negative = MMP loss [10] -23.2% | Potency [4] 11.9 µM [rising, full curve] | Potency [12] 21.3 µM [activator, partial curve]
active: Potency [5] 11.9 µM

COc1cc(C)c(/C=C/C(C)=C/C=C/C(C)=C/C(=O)O)c(C)c1C
inconclusive: Potency [2] 26.8 µM [inhibitor, single point] | Potency [14] 13.3 µM [cytotoxic] | Potency [6] 15 µM [cytotoxic, partial curve] | Potency [15] 29.8 µM [cytotoxic, single point] | Potency [7] 1.51 µM [rising, partial curve, poor fit] | Potency [16] 37.6 µM [inhibitor, single point] | Potency [8] 30.1 µM [fluorescent, partial curve, poor fit] | activation [5] 9.33% [phenotype inactive] | Potency (Aromatase (Homo sapiens)) 237 nM [inhibitor, full curve] | Potency [18] 3.38 µM [activator, partial curve]
active: Potency [1] 29.8 µM | Potency [17] 5.96 µM | Potency [13] 473 nM
